Assay results from the supplement of paper PMC3334620.
Over roughly 33,000 sequences, “E-score (-0.5 to 0.5)” has its median near -0.011; the highest 2% begin near 0.28. The list shows a part of the results.

molecular target: T1, Gcr1 (UniProt P07261); test: PBM E-score (8-mer binding enrichment) (E-score (-0.5 to 0.5)); higher = stronger / more preferred TF binding; most listed sequences are background and not binding sites; conditions: protein concentration: 100 nM; construct: GST-full length
T1 sequence: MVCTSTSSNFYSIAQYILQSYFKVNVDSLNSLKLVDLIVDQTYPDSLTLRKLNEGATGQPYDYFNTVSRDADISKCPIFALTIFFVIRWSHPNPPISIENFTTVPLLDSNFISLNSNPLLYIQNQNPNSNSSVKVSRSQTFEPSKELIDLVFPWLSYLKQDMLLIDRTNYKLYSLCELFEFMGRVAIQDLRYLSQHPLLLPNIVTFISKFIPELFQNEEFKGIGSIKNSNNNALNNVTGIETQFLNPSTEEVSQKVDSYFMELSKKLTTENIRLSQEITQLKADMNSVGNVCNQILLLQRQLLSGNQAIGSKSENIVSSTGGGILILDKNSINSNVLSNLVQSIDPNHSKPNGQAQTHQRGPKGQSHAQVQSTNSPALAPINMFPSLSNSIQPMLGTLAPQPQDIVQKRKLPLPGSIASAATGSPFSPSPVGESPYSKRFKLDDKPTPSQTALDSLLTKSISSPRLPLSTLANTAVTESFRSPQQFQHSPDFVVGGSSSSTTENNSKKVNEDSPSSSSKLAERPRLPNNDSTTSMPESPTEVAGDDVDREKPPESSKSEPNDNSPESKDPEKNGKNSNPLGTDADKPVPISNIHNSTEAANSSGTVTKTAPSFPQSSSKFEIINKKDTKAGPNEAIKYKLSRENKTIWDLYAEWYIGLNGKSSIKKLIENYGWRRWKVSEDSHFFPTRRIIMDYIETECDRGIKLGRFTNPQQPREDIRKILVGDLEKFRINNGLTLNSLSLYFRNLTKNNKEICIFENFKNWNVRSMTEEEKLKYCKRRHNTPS
Outline: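 GST-tagged yeast TFs (full-length or DNA-binding domain) were made by PURExpress in vitro transcription/translation and applied at about 100-200 nM to universal all-10-mer Agilent arrays. The arrays were made double-stranded by primer extension, on fresh or once-stripped slides. Bound protein was detected with fluorescent anti-GST, and scans were normalised with masliner. Each ungapped eight-base word, pooled with its reverse complement, received an E-score (modified Wilcoxon-Mann-Whitney statistic) from the Universal PBM Analysis Suite.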

Sequence	PBM E-score
AAATGGGG	0.204
AATTCGTC	0.037
ATCAATAG	-0.0521
CTCCCTCA	-0.0385
AACCCTTC	-0.00367
CTAGAGTA	-0.037
ACGCTTGA	0.0746
ACCGCATG	-0.164
AGGCGCCG	0.354
AGTGTTAC	-0.114
AAGGCCGT	-0.115
CTTTTAAA	0.00459
ATTACCTG	-0.148
CCGCAGCA	0.114
ATGGGACG	0.0597
CAAAGGGC	-0.139
CATGCTCG	-0.0657
AAGGCTTA	-0.426
AAATGGCA	0.0603
GTAGTATA	0.0704
TCCGTTCA	-0.112
AGAGTACG	-0.027
CCAGCCGC	-0.0253
AGATTAAA	0.137
CCATTGAC	-0.109

Sequence	PBM E-score
ATTCTAAA	0.125
GAGGGACA	-0.0898
ATGTTAAT	0.128
ATAAGGGA	0.128
ATCGGAGC	-0.0617
CGAAGGAA	-0.0303
AACGTAAT	-0.129
AGGCTCGC	-0.213
AGAACTCA	-0.0249
ACCCGTAC	-0.254
ATAAAGGC	0.074
AATTAGAA	0.279
ACATGTCA	-0.175
AGGCGGGC	-0.112
ACTGACCC	-0.321
CGGGTCTA	0.0247
AGTAGTGG	0.253
ACACGCAA	0.127
GCAACCCA	0.197
GCCCCGGA	0.0598
GACACTTA	-0.0835
GCTGCAGA	-0.0246
ATGTCAAA	-0.036
AAACACTT	-0.0959
AACGCGAG	-0.101

Sequence	PBM E-score
TAGGATCA	-0.0968
AACTGCAG	0.0233
GTTATTAA	0.0393
AGTGATCA	-0.0788
AGACGTAT	0.0564
GGCGCACC	-0.233
CCAAACCA	0.106
CAGACACC	0.00535
CAAAGTGA	-0.0881
CAACCCCA	0.0532
AGTTTGAT	-0.0282
GAATCGGA	0.011
CTAGTCCA	-0.0623
CCCGACCG	-0.317
CGGTCTCC	-0.134
ACGATACG	0.116
CGAAGGGA	-0.275
GGCAACGA	-0.124
CCCGGACC	-0.0455
CCGCGGAA	0.1
CACCGTGC	-0.16
ATGTTCCC	-0.0387
AACTGCAA	0.106
AATACCGT	0.00513
CTCTGACA	0.0673

Sequence	PBM E-score
TCAGTACA	-0.0408
GCCGTGCC	-0.0428
CATAAAGA	0.00123
CTACGAAA	0.014
AGCACCAC	0.235
CGACAATC	-0.0716
AGGAAAGC	-0.0635
ACTAAAGT	0.111
CGGATGCA	0.0929
GAATTTGC	0.0352
GGTGAGAC	-0.166
AGTCTTCC	-0.193
CCCCGTCA	-0.0451
ATTCCAGC	0.299
ACGTATAA	0.132
ACCCCTAG	-0.109
ATAGGCGC	0.206
CTTGAAGC	-0.107
GAACTCAC	0.0724
CTCAATGA	-0.0746
CCCCGTAG	-0.142
AGTGGCAG	0.287
ATTATATG	0.11
GGTTCTCA	0.122
CACTTCGG	0.046

Sequence	PBM E-score
CATCCAAA	0.298
CGTGCGAC	-0.204
TAGGACCA	-0.081
ATCTCACA	-0.0169
CCAATATC	-0.0269
ACCTACCC	-0.188
GTCCGGGA	0.18
ATAATTCC	0.0569
TAACATTA	0.0557
AGCAAAGC	-0.192
CCTCACGA	-0.183
TGCGAAAA	0.117
ATTATTGA	-0.0804
CCCCGTAA	0.174
GAGCCTAC	-0.0361
ATGAAACG	-0.0222
CCAGCCAC	0.0313
AGAATGCT	-0.303
AAATGTTG	0.00832
TACATGGA	-0.0102
AAGAGAGG	0.0766
GAAAAGTC	-0.0948
AGACGTTG	-0.00101
ACCGGAAC	0.203
ACCCGTTG	-0.0283

Sequence	PBM E-score
CTTTGCAA	0.0548
CCTCTCAG	-0.044
GACTCCGC	0.0149
GGCGCTAA	0.187
GTCGGGCA	-0.0244
ACCTAGAG	0.0421
ACTTTAGG	0.06
AAATCGAT	-0.0115
CAAGCGCC	-0.0572
CACAGGAC	-0.203
AGGGTTGC	-0.0512
AGTAGTTC	-0.0167
CGCTCCAG	-0.0241
GAGTGCGC	-0.155
ATCACGTG	-0.0141
ATAATATA	0.111
AATTAATA	0.158
ACGCTGTG	-0.244
ACTCAAAT	0.0379
ACAACAAC	-0.138
GACTTAAC	-0.238
TCAGAGCA	-0.0359
AAATTCCA	0.208
GCACGGCA	-0.0387
GGGAGGTA	-0.103

Sequence	PBM E-score
ATATGATA	0.133
AGCCGCTA	0.0724
CATCAGGA	0.197
CTGGCCCA	-0.166
AGGTGTCG	-0.11
CAACTTAC	-0.127
AATCAAGC	-0.0406
AGACACCC	-0.118
CATAATCA	-0.0462
CCTCTCTC	-0.145
ACTGATGC	-0.187
AGTGTCTG	-0.103
CCGGCTTC	0.358
AAGTTGAT	0.00575
GAGGGTGC	0.141
CGCATGAC	-0.0723
TCGTGCAA	-0.104
AAGCTTCG	0.129
ACTTATTC	-0.238
ACCCGGTC	-0.124
CTGTTAAG	0.0142
CACCGCTA	-0.0694
ATTGTTAA	0.0512
CGGCCAAA	0.064
GTCGATTA	-0.0178

Sequence	PBM E-score
TCACGTAA	-0.0255
GACGCTGA	0.301
GCCCCCGC	0.0462
ACGGCCAT	-0.246
CGAGCAAC	-0.0436
TCCATGAA	-0.0988
GGTTACCA	0.0502
AGCAAGCA	-0.294
GCTTGACA	0.126
AACTGTGT	-0.0046
ATCACGCA	0.0407
AAAGCGCT	-0.224
TAGAGGAA	0.396
ATTTCCCG	0.0883
ACGCGGAT	0.13
ATTGGCAA	0.0646
CGTCGGGA	0.0889
CTGGTCGC	0.219
GTAGCGGA	0.0281
ATGTACTA	-0.172
ACCTTTAG	-0.0897
CCGTGTTA	-0.213
ACTAAGGC	0.0384
CGTCACTA	0.198
AGCGGCAG	0.00512

Sequence	PBM E-score
CCAATCAG	0.191
AAAGGTCT	-0.0598
AGAGTGTA	-0.0677
ATAGAACA	-0.112
CCTGTTAA	0.228
CCCTCCGC	-0.194
AATACACA	0.0147
GGCATCGA	0.0436
CGGCCCAC	-0.311
AGACGCCG	0.421
GAAGCCGA	0.401
TAGGGATA	-0.157
CAACTGAG	-0.0496
CGGTCAAC	-0.244
GACAACCA	0.111
ACTTCAGA	0.0499
TAGCGCCA	0.181
CCTCTTAG	0.0353
CTGGTTAA	0.00827
GGAATAAC	0.0561
ATGTGGAA	0.16
CACTCGCG	0.0621
TATTCACA	0.174
CGGGAATC	0.216
GCTGGGCC	-0.16

Sequence	PBM E-score
CTCGTACA	-0.0352
TAGTTTGA	0.0745
AACCGGTG	0.0439
ATAACGCC	-0.0772
ACTGTTCG	-0.228
AACTCTTC	-0.28
TAAACGTA	0.0392
ATCGCGTA	-0.0264
ACGTGTGA	-0.274
AGACGAGG	-0.149
CCTCCTTA	-0.153
AGTAATTA	0.0077
GAGAAACC	0.0692
ACCTATGG	-0.077
CTATCCCA	-0.0348
CGTAGTAC	-0.0808
CCTGTGTC	0.129
AGGGGAAG	0.2
AGTCAATG	0.0242
CTAAATAG	0.225
GATCGGGA	-0.142
AACAACGG	0.128
ATATACAC	-0.143
CCTACTTC	0.0726
AAAGGGGT	0.0603

Sequence	PBM E-score
CTGCATCA	0.057
ATCAGCGC	0.0104
GCCTCCGA	0.0691
AGACACTG	-0.232
CCGCTCAA	-0.0654
AGGCTTGA	-0.109
ATCTCAAG	0.13
CGACGTGA	0.0384
AGCTCAAA	0.136
GGAGGAAC	-0.139
CGGTCAAA	-0.0135
ATAAGGCG	0.0319
CGGCACCC	0.381
CCGGTCAA	-0.039
CATCGCGA	0.118
CAAGACTC	0.14
AATCATTA	0.0416
CCTCAGTA	-0.186
GAGGATAC	-0.00197
CCAGTTCA	0.13
TACAGAAA	0.00771
CGTAGTCA	-0.0862
CGACCTCC	-0.0822
ACTTGAAT	0.0713
ACCAGCCG	-0.183

Sequence	PBM E-score
ATAGTTGC	0.232
CAGGTGGC	0.0298
ATGGCGAA	-0.147
ATGCAGAG	-0.0633
CCATGGTC	-0.165
ACCCCCTC	-0.367
GACAACTC	-0.0407
CGTCCTCA	0.0405
AAAAACAA	0.0916
GGCTGAGA	-0.0514
AGCTGGGG	-0.102
CTGGGAGA	0.156
CAGCCCCC	-0.0636
ACCGTACC	-0.105
ACGAATTC	0.204
CGCACCAA	0.0827
GGGATCGA	-0.0159
GTACCGAA	0.111
CACGGCTG	-0.193
GTAAGGCA	-0.101
AGGTCCCG	-0.0288
GTCCATCA	-0.105
GATCCCGA	0.202
ATATGGAG	0.149
CCCCCGGC	-0.0149

Sequence	PBM E-score
AGGTGACT	-0.125
CTTTCCGC	-0.271
TGACCTAA	0.11
CATTAGCA	0.2
AGGGGGCC	-0.0347
CCACATTC	-0.113
GCAGATCC	0.138
GCGTCCGA	0.251
GGTAGGTA	-0.0582
CCCAATAG	0.0922
AGCGTTTC	-0.0245
CTAAGATC	0.123
ATTAGTAC	-0.0685
AAGTATGG	0.0635
ATGGGCGG	0.117
AATAATTA	0.0967
GATAGACA	-0.249
CCAGTCGG	-0.0778
ATCCTGTG	0.206
CGAGCACA	-0.16
GAATGTAA	0.073
CGCGCTAA	0.16
AACGGAAT	0.149
ACAGCCGA	-0.133
AGCCTTTG	-0.178

Sequence	PBM E-score
CGACGACC	-0.197
AAGGTTAA	-0.056
CGCCTTCC	0.193
ACGTAGCA	-0.079
CGTGCGTA	-0.0223
GCCAACCA	-0.165
AGATTAGG	0.0456
AGCCGGAA	0.125
AAACATTC	-0.0188
GGCGGATA	-0.141
GCCCGGCC	-0.144
ATTCCAAC	0.221
GATACTAC	0.209
ATAGCTTC	0.249
CGGTAATA	0.0548
GAATATAA	0.0912
CTCGGGTC	0.135
AGGAGGCC	0.0876
TCACGACA	-0.0725
